Molecular target: T1, human angiopoietin-2 (human, UniProt O15123 68-496, limits assumed)
T1 construct: Bought preparation; two N-termini (Asp68 major, Tyr19 minor) are stated, the C-terminal limit is not; also called Ang2; human Ang2
T1 sequence (looked up): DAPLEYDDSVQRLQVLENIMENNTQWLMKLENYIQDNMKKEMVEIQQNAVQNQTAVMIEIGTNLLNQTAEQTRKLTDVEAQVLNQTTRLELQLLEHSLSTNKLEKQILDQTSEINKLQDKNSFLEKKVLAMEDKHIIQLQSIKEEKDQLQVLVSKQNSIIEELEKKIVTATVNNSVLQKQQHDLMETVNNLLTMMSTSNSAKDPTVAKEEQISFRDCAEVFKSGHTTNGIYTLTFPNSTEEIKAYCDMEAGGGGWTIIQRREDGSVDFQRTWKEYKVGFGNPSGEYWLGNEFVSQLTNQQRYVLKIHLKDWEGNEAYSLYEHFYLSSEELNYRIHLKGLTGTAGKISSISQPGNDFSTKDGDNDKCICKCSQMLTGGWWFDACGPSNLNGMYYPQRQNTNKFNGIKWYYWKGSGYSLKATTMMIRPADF
Experiment: solid-phase plate binding assay, time-resolved fluorescence, Ang2 coated
Method: Both Tek745/Fc and Tek472/Fc were examined for the ability to bind the human Tek ligand angiopoietin 2 (Ang2), using a solid-phase plate binding assay based on time-resolved fluorescence.
Low fluorescence 8×12 strip microtiter plate wells (Perkin-Wallac, Ackron, Ohio) were incubated with human Ang2 (R&D systems) at 500 ng/ml (100 μl) overnight at 2-8° C. The wells were then blocked by the addition of 100 μl of 1% BSA/PBS solution for 1 hour at room temperature. Following a 4×PBS-T (PBS-Tween 20 0.05%) wash, samples containing Tek745/Fc, Tek472/Fc, or TNFR/Fc (control/Fc) were titrated in diluent (1% BSA/PBS), in duplicate, beginning at 30 μg/ml in 3-fold dilutions. The samples were allowed to bind for 1 hour at room temperature with gentle agitation and then the unbound material was washed away 4×with PBS-T. Bound Tek/Fc was detected by adding goat anti human IgG-Europium conjugate (Perkin-Wallac), diluted to 100 ng/ml in assay buffer, to the wells and incubating for 30 minutes at room temperature. Unbound goat anti-human IgG-Europium was removed by a 4×PBS-T wash. […] Binding was determined by reading the fluorescence emitted from each well on a Victor II Multilabel counter equipped with software and light excitation/emission devices to measure Europium-derived fluorescence.

- fold better binding than Tek745/Fc: 21 fold
- fold better binding than Tek745/Fc, based on mass concentration: > 20 fold
B1: Tek472/Fc (Fc fusion)
chain: AMDLILINSLPLVSDAETSLTCIASGWRPHEPITIGRDFEALMNQHQDPLEVTQDVTREWAKKVVWKREKASKINGAYFCEGRVRGEAIRIRTMKMRQQASFLPATLTMTVDKGDNVNISFKKVLIKEEDAVIYKNGSFIHSVPRHEVPDILEVHLPHAQPQDAGVYSARYIGGNLFTSAFTRLIVRRCEAQKWGPECNHLCTACMNNGVCHEDTGECICPPGFMGRTCEKACELHTFGRTCKERCSGQEGCKSYVFCLPDPYGCSCATGWKGLQCNEACHPGFYGPDCKLRCSCNNGEMCDRFQGCLCSPGWQGLQCEREGIPRMTPKIVDLPDHIEVNSGKFNPICKASGWPLPTNEEMTLVKPDGTVLHPKDFNHTDHFSVAIFTIHRILPPDSGVWVCSVNTVAGMVEKPFNISVKVLPKPLNAPNVIDTGHNFAVINISSEPYFG[… human IgG1 Fc …]
notes: Expressed in CHO cells; also called human Tek472/Fc; recombinant human Tek472/Fc

Reference: patent publication US20030162712A1 (IMMUNEX, published 2003)
